Experimental data as given in PubChem BioAssay (NCI).
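Method: 48-hour compound exposure of cells in 96-well plates, five concentrations, linear interpolation of endpoints. GI50 = concentration required for 50% inhibition of growth. TGI marks complete inhibition of growth.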

Each molecule was assayed on NCI-H322M lung (assay: DTP human tumour cell line panel, 48 h).

Row | SMILES | GI50 [µM] | TGI [µM]
1 | O=S(=O)(CCN1CCOCC1)Nc1cc(-c2ccc3ncnc(Nc4ccc(F)c(Cl)c4)c3c2)cnc1Cl | 0.219 | 2.03
2 | COC(=O)c1c(C(=O)OC)c2ccccn2c1-c1cc(OC)c(Br)c(=O)o1 | – | > 100
3 | COC1CCON1C(=O)c1ccccc1 (centres undefined) | – | > 10
4 | COc1cc2c(c(OC)c1OC)-c1ccc(SC)c(=O)cc1C(CC(=O)Oc1cccc([N+](=O)[O-])c1)C2 (centres undefined) | – | > 57.4
5 | O=C1CSC(=S)N1c1ccco1 | – | > 100
6 | Cc1ccc(-c2nc3ccccc3c(=O)n2NCC2(O)OCC(O)C(O)C2O)cc1 (centres undefined) | – | > 100
7 | CCCCN1CCCC[C@@H]1C(=O)N[C@H](C(=O)N(C)[C@H](C[C@@H](OC(C)=O)c1nc(C(=O)NC2CCC(C(=O)OC)CC2)cs1)C(C)C)C(C)C (some centres undefined) | 1.69 | > 25
8 | S=C1NC2=C(COc3ccccc32)C(c2ccc(Cl)cc2)N1 (centres undefined) | – | 30.3
9 | NC(N)=NCC1CCCCCCN1 (centres undefined) | – | > 100
10 | COc1nc2cccc(C(O)c3ccccc3)c2nc1-c1ccccc1 (centres undefined) | – | > 100
11 | CC(=O)OC1CCC2(C)C(CCC3C2CC(=O)C2(C)C3CC(N3CC3)C2C(C)=O)C1 (centres undefined) | – | 52.5
12 | COC(=O)c1ccc2c(c1)C(=O)c1c-2n(CCCCl)c(=O)c2cc([N+](=O)[O-])ccc12 | > 100 | > 100
13 | N#CC12CCC1C1CCCCC12N1CCSCC1 (centres undefined) | – | > 100
14 | Cc1ccc(C2(c3ccc(Cl)cc3)c3ccccc3C3=NCCN32)cc1 (centres undefined) | – | 22.5
15 | CC1=CC(C)=NN=C(N)N1S(=O)(=O)c1cc(C)c(Cl)cc1SCc1ccccc1 | > 100 | > 100
16 | NCCSc1cc(O)c2c(c1N)C(=O)c1ccccc1C2=O | – | > 100
17 | C[C@@]1(C(=O)O)CCC[C@]2(C)C1CC[C@@]13C[C@@](O)(CC[C@]12O)[C@@]1(CO1)C3 (some centres undefined) | > 100 | > 100
18 | Nc1c(C(=O)Nc2ccccc2)sc2nc3c(cc12)CCCCC3 | 0.907 | > 100

Row | SMILES | GI50 [µM] | TGI [µM]
19 | O=c1[nH]c2ccccc2c2nc3ccccc3n12 | – | > 100
20 | O=C1C(=O)N(c2ccc(Cl)cc2)C(=O)C(=O)C1c1nc2ccccc2o1 | – | > 100
21 | CC(=O)Nc1ccc2nc(-c3ccccn3)c(-c3ccccn3)nc2c1 | – | > 100
22 | COc1cc(CSc2ccc(O)cc2)cc(OC)c1OC | – | > 100
23 | CCOC(=O)c1cc(-n2nnc3ccccc32)cn1C | – | > 10
24 | COc1cccc(C23CCCC(C2)NCC3Br)c1OC (centres undefined) | – | > 100
25 | C=C1CC2(CC(c3ccccc3Cl)OC(c3ccccc3Cl)C2)OC1=O (centres undefined) | – | 19.9
26 | NNC(=O)CC(=O)Nc1cccc(Cl)c1 | – | > 100
27 | S=C(NCCc1ccccn1)N/N=C/c1ccccn1 | – | > 100
28 | COC(=O)C1CCC(=S)N1C(=O)OCc1ccccc1 (centres undefined) | – | > 100
29 | Cc1ccc(C(=O)Nc2ccc(CP(=O)(O)O)cc2)cc1NC(=O)c1cccc(N)c1 | – | > 100
30 | CC(CCC[C@H](C)CO)[C@H]1[C@@H](O)C(O)C2[C@@H]3C[C@@H](O)C4(O)C[C@@H](O)CC[C@]4(C)C3CC[C@@]21C (some centres undefined) | – | > 100
31 | CSC1(C)C(=O)Nc2c(OCc3ccccc3)cc([N+](=O)[O-])cc21 (centres undefined) | – | > 100
32 | CN(C)CCCN(CCC1CCCCC1)CCC1CCCCC1 | 4.55 | 17.2
33 | CCCc1n(Cc2ccc3ccccc3c2)cc[n+]1Cc1ccc2ccccc2c1 | 1.96 | 6
34 | Nc1ccc2[nH]c(-c3cccc(C(F)(F)F)c3)cc(=O)c2c1 | – | > 100
35 | COC(=O)C1CCC(=O)N1C(c1cc(OC)c(OC)c(OC)c1)c1cc(OC)c(OC)c(OC)c1 (centres undefined) | – | > 100
36 | O=C/C1=C/C2=Cc3ccccc3C=C(/C=C(/C=O)C1)C2 | – | > 100
